Measured values as given in PubChem BioAssay AID1963576 (National Center for Advancing Translational Sciences (NCATS), 2024).
Out of some 46,000 compounds screened, about 60 (0.1%) were called active. About 3% were inconclusive and are not listed. Calls come from the whole dose curve; as a rule, active = well fitted inhibition curve with a large enough effect; inconclusive = small, poorly fitted or top-dose-only effect; inactive = no such curve, though single readings can be large or run the other way. This is one part of the list.

Assay: Primary qHTS assay for Inhibitors of ovarian cancer metastasis using an organotypic tumor microenvironment (TME) model.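 For activity change, negative = inhibition: plate controls were DMSO wells for no effect and tomatine positive control wells for full effect.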 Note: nearly all actives have a fitted effect of over 65% in size.
Details: SKOV3ip1-GFP adhesion/invasion on 3D omental model, fluorescence; series mostly up to 45.8 µM; activity change, negative = inhibition: at the top concentration
Method in brief: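 qHTS, 4-pt dose (0.36-46 umol/L); SKOV3ip1-GFP, 1,200 cells/well, no FBS; primary omental fibroblast/mesothelial co-culture 48 h pre-grown; 2 h RT + 16 h 37 C; PBS wash, 4% PFA; GFP count 488/509 nm.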

Compound	activity change, negative = inhibition	outcome
Cc1cccc(C(=O)Nc2nnc(S(=O)(=O)N3CCC(C)CC3)s2)c1	inactive: 0.777%	
CCOC(=O)CC(NC(=O)c1cc2cc(OC)ccc2oc1=O)c1ccc(OC)cc1 (stereo not drawn)		inactive
COc1ccc(-c2cc(C(=O)Nc3ccc(C#N)cc3)no2)cc1	inactive: 0.469%	
CCOC(=O)Cc1c(C)nc2c(-c3ccc(OC)c(OC)c3)c(C)nn2c1C	inactive: -7.5%	
Cc1cccc(OCC(=O)OCc2cc(=O)n3nc(C4CC4)sc3n2)c1		inactive
CC1CCN(C(=O)CN2CCSc3ccc(S(=O)(=O)N(C)C)cc32)CC1		inactive
CCOC(=O)c1c(C)oc2ncnc(Nc3ccc(CC)cc3)c12		inactive
CCOc1ccc(CNC(=O)CCS(=O)(=O)c2cc3c4c(c2)CCN4C(=O)CC3)cc1		inactive
O=C(C1CCN(S(=O)(=O)c2cccc3nonc23)CC1)N1CCN(c2ccc(F)cc2)CC1		inactive
CC(=O)c1ccc(NC(=O)C(Cc2ccccc2)NS(=O)(=O)c2ccc3c(c2)CCC(=O)N3)cc1 (stereo not drawn)	inactive: 34.4%	
CCC(=O)N1CCc2cc(S(=O)(=O)NCCC(=O)NC(C)c3ccccc3)ccc21 (stereo not drawn)	inactive: 7.22%	
Cc1cc(C)cc(OC(=O)c2cc(-c3ccc4c(c3)OCCO4)on2)c1	inactive: 4.78%	
COc1ccc(/C=C/c2nc(-c3ccccc3O)n(-c3ccccc3)n2)cc1OC	inactive: 4.03%	
Cc1ccc(NC(=O)C(=O)NCC(c2cccnc2)N2CCOCC2)cc1C (stereo not drawn)	inactive: 3.74%	
CCS(=O)(=O)N1CCc2cc(C(=O)N3CCN(c4cccc(C(F)(F)F)c4)CC3)ccc21	inactive: -7.52%	
CCc1ccc(OC(=O)CSc2nnc(-c3ccc4c(c3)OCO4)o2)cc1		inactive
CCOc1ccc(-n2c(Cc3ccccc3)nnc2SCc2nc(-c3ccccc3C)no2)cc1	inactive: 13.5%	
CC(=O)NCCNC(=O)CCCc1nnc2n(CCC(C)C)c(=O)c3sccc3n12	inactive: 3.8%	
Cc1ccc(C)c(Cn2c(=O)c3c(nc4n3CCN4c3ccc(F)cc3)n(C)c2=O)c1	inactive: 2.52%	
CCn1c(CN2CCC(C)CC2)nc2cc(NC(=O)c3ccccc3[N+](=O)[O-])ccc21		inactive
Fc1cccc(-c2nc(-c3ccncc3)no2)c1	inactive: 2.03%	
Cc1ccc(C(=O)c2oc3ccccc3c2NC(=O)c2cc(=O)c3ccccc3o2)cc1	inactive: 1.06%	
Oc1cccc(C(Nc2ccccn2)c2ccc3cccnc3c2O)c1Cl (stereo not drawn)	inactive: -3.63%	
CCOCCCNC(=O)C(c1ccc(OC)cc1)N(Cc1cccs1)C(=O)c1ccc(NC(C)=O)cc1 (stereo not drawn)	inactive: -8.37%	

Compound	activity change, negative = inhibition	outcome
COc1ccc(CNC(=O)Cn2ccc3cc(S(=O)(=O)N4CCCCCC4)ccc32)cc1OC	inactive: -4.2%	
COc1cccc(-c2cn3c(n2)sc2cc(C(=O)NCc4cccs4)ccc23)c1		inactive
COc1ccc2oc(=O)cc(CN3CCN(C(=O)c4ccccc4F)CC3)c2c1	inactive: 16.7%	
COc1ccc(NC(=O)CSc2nc3nc(C)cc(C)n3n2)cc1	inactive: 37.3%	
Cc1c(CNCc2ccc(Cl)cc2)c(C(=O)O)c(C)n1Cc1ccc(F)cc1	inactive: 2.6%	
CCOc1ccc(CNS(=O)(=O)c2ccc3[nH]c4c(c3c2)CCCC4)cc1OC	inactive: -8.83%	
CCOc1ccc(CNC(=O)C2CCN(S(=O)(=O)c3c(C)noc3/C=C/c3ccc(C)cc3)CC2)cc1OC	inactive: 3.45%	
Cc1ccc(Cl)cc1N1CCN(C(=O)c2cc(S(=O)(=O)N3CCC(C)CC3)cn2C)CC1		inactive
CC(=O)Nc1ccc(NC(=O)CC2Sc3ccccc3NC2=O)cc1 (stereo not drawn)	inactive: -0.396%	
COc1ccc(NC(=O)Cn2c(CCC(=O)O)ccc2-c2ccccc2)cc1Cl	inactive: 8.61%	
COc1cccc(CNC(=O)CCc2nnc3n(C)c(=O)c4sccc4n23)c1	inactive: -7.76%	
CCCN(CCC)CCCNC(=O)C1CCC(CNS(=O)(=O)c2ccc(NC(C)=O)cc2)CC1 (stereo not drawn)	inactive: -3.38%	
Nc1ccc(S(=O)(=O)Nc2ccccn2)cc1	inactive: -4.41%	
CCOc1ccc(CC(=O)Nc2c(C(=O)c3ccc(F)cc3)oc3ccccc23)cc1OCC		inactive
CCN1CCC(n2cc(CNc3cc(Cl)c4ncc(C#N)c(Nc5ccc(F)c(Cl)c5)c4c3)nn2)CC1	inactive: -1.46%	
CCOC(=O)c1c(C)oc2nc(C)nc(Nc3cccc(OC)c3)c12	inactive: 9.02%	
CCOC(=O)Cc1ccc(NC(=O)n2ncc3c(C)cccc32)cc1	inactive: 3.08%	
Cn1cc(-c2ccncc2)c(-c2ccc(OCc3ccc4ccccc4n3)cc2)n1	inactive: 4.46%	
CCC(O)c1nc2ccccc2n1Cc1cccc(Cl)c1 (stereo not drawn)	inactive: 4.96%	
Cc1ccccc1CSc1cn(CCNC(=O)c2cccs2)c2ccccc12		inactive
COc1ccc(C(CNC(=O)COc2ccc(C)c(C)c2)N2CCCCC2)cc1 (stereo not drawn)	inactive: -26.6%	
COc1cc(OC)cc(C(=O)Nc2cc3nn(-c4ccccc4)nc3cc2Cl)c1	inactive: -12.1%	
Cc1cc(C)c(NC(=O)Cn2nc3c(cc2=O)CCCC3)c(C)c1	inactive: -1.63%	
COCCCN1C(=O)N(c2ccccc2)C(=O)C1CC(=O)Nc1ccc(F)cc1 (stereo not drawn)	inactive: 4.7%	
